# Measured values: the supplement of paper PMC5655136
# These are enrichments in a pooled selection; single values are uncertain.
# System: NB7
# Assay: fold depletion of shRNA, plasmid library share / infected cells without Dox share (9 days) (ratio); higher = more depleted after infection (more toxic, leaky expression from a Tet-inducible vector; NB7 is a neuroblastoma line without caspase-8)
# Procedure: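 Pooled lethality screen in NB7 neuroblastoma cells infected with Dox-inducible pTIP shRNA libraries. The libraries tile every 21-mer of the Venus, CD95L or CD95 ORF / 3'UTR; each hairpin is the 21-nt sense sequence + CTCGAG loop + antisense. Cells were cultured 9 days with or without 100 ng/ml Dox. shRNA representation was measured by deep sequencing of the genomic inserts, normalised to the total reads per subpool and averaged over technical replicates. Fold depletion is the plasmid library share / infected cells without Dox share (mean of 2 biological replicates), and the -Dox/+Dox share ratio is the mean of 4 replicate pairings; higher values mean more depletion (toxicity).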
# [1] = shRNA pool: CD95 ORF + CD95 3'UTR + Venus libraries
# [2] = shRNA pool: CD95L ORF + CD95L 3'UTR + Venus libraries
# 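Also: shRNA barcodes quantified by deep sequencing of PCR amplicons from cellular DNA, counts expressed as percent of each subpool, ratio averaged over two biological duplicates.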
Sequence,fold depletion of shRNA [1],fold depletion of shRNA [2]
AGGCTCTACCTCAAAGACCTT,3.03,
AGGCTGAAAGAGGCCAATGCC,,1.67
AGGCTTGCATAATAAGCTAAA,,2.17
AGGGAACCACAGCACAGGCCT,,15.1
AGGGAAGGAGTACACAGACAA,1.16,
AGGGACTGCACAGTCAATGGG,0.763,
AGGGAGAAGCATGAAAAAGCA,,1.02
AGGGATTGGAATTGAGGAAGA,1.32,
AGGGCATCGACTTCAAGGAGG,0.867,4.31
AGGGCGACACCCTGGTGAACC,1.6,1.17
AGGGCGAGGAGCTGTTCACCG,1.82,1.41
AGGGCGAGGGCGATGCCACCT,0.814,1.26
AGGGGAAGATGATGAGCTACT,,0.622
AGGGGTGTGTGTGTGTGTGTG,,1.02
AGGGTCTTCTTACATGCATTT,,0.539
AGGGTTCAAAATGTCTGTAGC,,2.54
AGGTAAAAGTACGTAATTAAA,0.806,
AGGTCAAGTAAGAAGACATGA,,3.04
AGGTCTACATGAGGAACTCTA,,1.47
AGGTGAAAGGAAAGCTAGGGA,2.88,
AGGTGAAGTTCGAGGGCGACA,1.38,1.73
AGGTGGGCCTTGCTACCTCAA,,0.686
AGGTGTTCTACACTCATCTTA,,3.73
AGTAAATATATCACCACTATT,0.635,
AGTAAGAAGACATGAACCAAG,,2.01

Sequence,fold depletion of shRNA [1],fold depletion of shRNA [2]
AGTACAAATGTCTATCCACAG,1.16,
AGTACAACTACAACAGCCACA,,3.52
AGTACACAGACAAAGCCCATT,1.05,
AGTACAGAAAACATGCAGAAA,2.39,
AGTACATATTAGGAAAATATG,,0.635
AGTACCCAAATAGGAGTGTAT,1.32,
AGTACGTAATTAAATAATGTT,0.945,
AGTAGCTTTGTGACATGTCAT,0.387,
AGTATAAGAAGGGTGGCCTTG,,0.293
AGTATACTTCCGGGGTCAATC,,3.04
AGTATATGCAATTAGTGTTTG,1.65,
AGTATATGTATTTGAGTGCAG,1.15,
AGTATCCCCAGGATCTGGTGA,,1.81
AGTATGAATGTAATCAGTGTA,2.74,
AGTATTACTAGAGCTTTGCCA,1.39,
AGTATTTAGGCAGATTGAAAA,,1.61
AGTCAAGTTAAAGGCTTTGTT,1.31,
AGTCAATGGGGATGAACCAGA,4.47,
AGTCATGACACTAAGTCAAGT,3.01,
AGTCCAACTCAAGGTCCATGC,,23.6
AGTCCACCAAAAGGCAAGACT,2.37,
AGTCCACCCCCTGAAAAAAAG,,10.5
AGTCCGCCATGCCCGAAGGCT,2.99,
AGTCCGCCCTGAGCAAAGACC,1.21,1.71
AGTCTACCAGCCAGATGCACA,,0.322

Sequence,fold depletion of shRNA [1],fold depletion of shRNA [2]
AGTGAAAAACAACAAATTCAG,1.09,
AGTGAAGTATAAGAAGGGTGG,,0.981
AGTGACTCAGAAAATTCAAAC,1.83,
AGTGACTGACATCAACTCCAA,7.57,
AGTGAGGGTCTTCTTACATGC,,4.28
AGTGCAAAGAGGAAGGATCCA,1.93,
AGTGCAATTGTAGGGGTGTGT,,2.46
AGTGCAGAATTTAAATAAGGC,1.94,
AGTGCAGATGTAAACCAAACT,1.47,
AGTGCCAGCTCTCCCTGGGCC,,5.44
AGTGCTGATCATTTATATGTC,,0.769
AGTGCTTAAAAATCATTGATT,,1.54
AGTGCTTCGCCCGCTACCCCG,2.34,2.09
AGTGGAAATAAACTGCACCCG,4.62,
AGTGGACCTTGAGACCACAGG,,2.99
AGTGGCAATAAATTTATCTGA,0.713,
AGTGGCCCATTTAACAGGCAA,,1.16
AGTGTATGCAGAGGATGAAAG,1.94,
AGTGTATGTTAGTACAAATGT,0.97,
AGTGTTAATGCCCAAGTGACT,2.2,
AGTGTTCAATCTTACCAGTGC,,3.09
AGTGTTTGAAAAGATTCTTAA,0.63,
AGTTAAAGGCTTTGTTCGAAA,0.916,
AGTTACTGAACAGGCAGGCCA,8.09,
AGTTATAAACTGAAGCAGATA,0.94,

Sequence,fold depletion of shRNA [1],fold depletion of shRNA [2]
AGTTCAACTGCTTCGTAATTG,2.43,
AGTTCAGCGTGTCCGGCGAGG,0.542,0.763
AGTTCGAGGGCGACACCCTGG,0.988,1.13
AGTTCGTGACCGCCGCCGGGA,0.844,0.967
AGTTCTGAGTATATGCAATTA,1.26,
AGTTCTTCCCTGTCCAACCTC,,67
AGTTGAGACTCAGAACTTGGA,1.02,
AGTTGGGAAAACAAACTTCAT,0.895,
AGTTTATTGGTGTCATATTAT,1.01,
AGTTTCTAAGATTTAAGATTC,0.687,
AGTTTGTATTAAATGTGAATT,1.32,
ATAAAAAGTATATGTTAGGAT,,0.727
ATAAAATAGATTCTTATTTTT,0.961,
ATAAAATATAGGTAAAAGTAC,0.998,
ATAAACTGAAGCAGATACCTG,1.34,
ATAAACTGCACCCGGACCCAG,2.02,
ATAAATATTTATGTAGATGTG,,1.42
ATAAATTTATCTGATGTTGAC,1.11,
ATAACTCTGAGAAGATCATAT,0.971,
ATAAGCAAGAGAGATGTTTTG,,0.593
ATAAGCTAAAGAGGCTGAAAG,,3.38
ATAATAAATATTTATGTAGAT,,0.8
ATAATAAGCTAAAGAGGCTGA,,1.02
ATAATATAATAAATATTTATG,,1
ATAATATTTATATTTCTGTAA,1.06,

Sequence,fold depletion of shRNA [1],fold depletion of shRNA [2]
ATAATGTCCCATGTAAAACCT,3.19,
ATAATGTTTGACTATTATATA,0.792,
ATAATTCTAGAGATTTTACCA,1.35,
ATACAATATTTCAATTGTGAA,0.869,
ATACATAGCAATGGTAAAATC,0.443,
ATACATGGTTGTGACCTGAGG,,1.25
ATACCAAGTGCAGATGTAAAC,0.993,
ATACCCCCAAGTTTCTAAGAT,1.54,
ATACCTGGAACCACCTAAAGA,2.48,
ATACTAACTGCTCTCAGAGAA,1.56,
ATACTGCTTGGTTTTTTACTG,3.21,
ATACTTAATAGTCCACCAAAA,1.02,
ATACTTCCGGGGTCAATCTTG,,14
ATAGAAAACATTAAATTATAA,1.21,
ATAGAAGAAGCTATGACCTTT,1.18,
ATAGATGAGATCAAGAATGAC,1.61,
ATAGATTCTTATTTTTCCCCC,0.711,
ATAGCAATGGTAAAATCATCA,1.48,
ATAGCTGGCTGTAAATACTGC,1.06,
ATAGGAGTGTATGCAGAGGAT,1.23,
ATAGGCCACCCCAGTCCACCC,,0.113
ATAGGTAAAAGTACGTAATTA,1.06,
ATAGTCCACCAAAAGGCAAGA,1.56,
ATAGTGCTTAAAAATCATTGA,,1.18
ATAGTTATAAACTGAAGCAGA,0.929,

Sequence,fold depletion of shRNA [1],fold depletion of shRNA [2]
ATATAATAAATATTTATGTAG,,0.736
ATATAGGTAAAAGTACGTAAT,0.961,
ATATATCACCACTATTGCTGG,1.03,
ATATATGTGTATGCATTTTAC,1.12,
ATATCACCAAAAAATACTTAA,1.76,
ATATCACCACTATTGCTGGAG,7.63,
ATATCACCGCCGACAAGCAGA,2.63,5.78
ATATCAGTTACTGAACAGGCA,10.8,
ATATCCCCAGATCTACTGGGT,,9.12
ATATCCTGAGCCATCGGTGAA,,0.675
ATATCTCATGATTCTGCCTCC,1.41,
ATATCTTTGAAAGTTTGTATT,0.867,
ATATGACGGAAGAACATAGAA,,0.615
ATATGATTCTGTAGTATGAAT,1.1,
ATATGCAATTAGTGTTTGAAA,1.25,
ATATGGGTTGCATTTGGTCAA,,0.48
ATATGTATTTGAGTGCAGAAT,1.04,
ATATGTCAACGTATCTGAGCT,,3.17
ATATGTGTATGCATTTTACTG,2.25,
ATATTAGGAAAATATGGGTTG,,0.925
ATATTATACAATATTTCAATT,0.925,
